# Data taken from the BET-seq Pho4 binding data (Le et al. 2018).
# The other results are listed elsewhere or left out. Values were computed here from the reads of four pooled replicates and scatter widely.
# Target: T1, Pho4 (S. cerevisiae) (UniProt P07270)
# T1 sequence: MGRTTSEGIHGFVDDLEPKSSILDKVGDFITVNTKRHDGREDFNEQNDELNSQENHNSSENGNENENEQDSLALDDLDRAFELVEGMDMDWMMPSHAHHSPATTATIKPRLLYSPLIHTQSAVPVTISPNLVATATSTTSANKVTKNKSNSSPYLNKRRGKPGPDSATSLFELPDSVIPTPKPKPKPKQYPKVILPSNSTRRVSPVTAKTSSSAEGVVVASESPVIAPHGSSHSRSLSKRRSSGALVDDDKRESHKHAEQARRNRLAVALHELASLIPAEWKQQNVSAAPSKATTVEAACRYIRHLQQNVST
# Test: relative binding free energy (BET-seq); higher = weaker binding
# Details: reference: library average
row,Sequence,relative binding free energy
1,TAACTCACGTGGTATT,0.17 kcal/mol
2,GGTCACACGTGTAGGG,0.21 kcal/mol
3,CTCGTCACGTGTAAGG,0.1 kcal/mol
4,ATAGTCACGTGGAGGG,0.06 kcal/mol
5,TTATTCACGTGAAGTG,0.36 kcal/mol
6,CGTGACACGTGGTGAT,-0.15 kcal/mol
7,GAGTTCACGTGTGTTC,0.38 kcal/mol
8,GGCTCCACGTGTAGGT,0.15 kcal/mol
9,TTGCGCACGTGGTGCG,-0.07 kcal/mol
10,AGTGTCACGTGCGGGG,-0.08 kcal/mol
11,TTTGACACGTGGCTGA,0 kcal/mol
12,CTTTGCACGTGGCTTG,0.04 kcal/mol
13,ATAATCACGTGTAGTG,0.05 kcal/mol
14,ATTTGCACGTGCTGCG,-0.02 kcal/mol
15,TCTCGCACGTGTGGGT,-0.02 kcal/mol
16,GGTGGCACGTGCAAGA,-0.02 kcal/mol
17,TCAATCACGTGGGTAT,-0.06 kcal/mol
18,GGGGGCACGTGCTTGA,-0.21 kcal/mol
19,TAAGGCACGTGTTTGT,-0.02 kcal/mol
20,GGATGCACGTGTCGTT,0.1 kcal/mol
21,AGGCTCACGTGACTGG,0.35 kcal/mol
22,AGTTGCACGTGGGTTG,-0.3 kcal/mol
23,GGCGCCACGTGGGGAG,-0.21 kcal/mol

row,Sequence,relative binding free energy
1,AGTGGCACGTGGGCTA,-0.24 kcal/mol
2,TGGTGCACGTGCTTTG,-0.08 kcal/mol
3,GATATCACGTGTAAGG,0.37 kcal/mol
4,TATATCACGTGGCGGC,0.11 kcal/mol
5,GAAGTCACGTGAGAGG,0.24 kcal/mol
6,ACAGTCACGTGGCGGG,0.08 kcal/mol
7,TTTTACACGTGGAGGA,0.12 kcal/mol
8,TAAGGCACGTGTCGTA,-0.19 kcal/mol
9,ATAGGCACGTGTTAAT,-0.24 kcal/mol
10,CTAGGCACGTGTGAAT,0.13 kcal/mol
11,TCATACACGTGGTTGA,0.11 kcal/mol
12,TAATACACGTGGTCGT,-0.11 kcal/mol
13,GTTGGCACGTGTGGAC,-0.06 kcal/mol
14,CGGTGCACGTGTAGAT,0.12 kcal/mol
15,TCGGTCACGTGATTTG,0.17 kcal/mol
16,TAGATCACGTGTTGCT,0.11 kcal/mol
17,TTTGACACGTGGGGTA,-0.18 kcal/mol
18,TTTGGCACGTGGGCTT,-0.17 kcal/mol
19,TTTCTCACGTGTAGTT,0.24 kcal/mol
20,GGGGTCACGTGACCGG,0.11 kcal/mol
21,TAAGGCACGTGGCGTC,-0.08 kcal/mol
22,GCGTTCACGTGGAAGG,0.32 kcal/mol
23,TTGACCACGTGGTATT,-0.09 kcal/mol

row,Sequence,relative binding free energy
1,GTATTCACGTGAAGGG,0.27 kcal/mol
2,GGGTTCACGTGGTGCC,0.28 kcal/mol
3,GCGTGCACGTGGTCGG,0.02 kcal/mol
4,TTCTACACGTGGGTGA,-0.13 kcal/mol
5,AGTTGCACGTGCGTGG,-0.1 kcal/mol
6,GGCCTCACGTGGTTAT,0.27 kcal/mol
7,TGTGACACGTGTGGGG,0.11 kcal/mol
8,CGTAACACGTGTGGTG,0.11 kcal/mol
9,TAGTACACGTGCGGTG,0.02 kcal/mol
10,AGTTACACGTGGAGTT,0.05 kcal/mol
11,TATGGCACGTGTGTTT,0.06 kcal/mol
12,ATGTGCACGTGCTTTG,-0.13 kcal/mol
13,GAATGCACGTGTGTGT,0.18 kcal/mol
14,TGGTACACGTGATGAT,0.18 kcal/mol
15,CGGCTCACGTGGTTGG,0.21 kcal/mol
16,AGCAGCACGTGGGTGC,-0.12 kcal/mol
17,TTGCGCACGTGGGTTT,-0.24 kcal/mol
18,GCGGACACGTGAGGTA,0.47 kcal/mol
19,AGCTTCACGTGTTGTC,0.32 kcal/mol
20,TTGCACACGTGTATGG,-0.04 kcal/mol
21,GCGTGCACGTGTGGAA,0.04 kcal/mol
22,TTGGTCACGTGAGTAT,0.38 kcal/mol
23,GGGGGCACGTGGTGTA,-0.09 kcal/mol

row,Sequence,relative binding free energy
1,GTCTGCACGTGAGGGA,0.44 kcal/mol
2,AGTAACACGTGTAAGT,0.06 kcal/mol
3,GGTGCCACGTGTTGGT,0.07 kcal/mol
4,TAGTTCACGTGGGCAA,0.28 kcal/mol
5,CGTTGCACGTGTATGG,-0.09 kcal/mol
6,GGGGTCACGTGTCCGG,0.23 kcal/mol
7,AGGTTCACGTGTTCGC,0.26 kcal/mol
8,ATGAACACGTGGTGGC,0.08 kcal/mol
9,TTTTTCACGTGTCGGA,0.38 kcal/mol
10,TTTATCACGTGGGGTG,-0.03 kcal/mol
11,AGATGCACGTGGATTG,0.02 kcal/mol
12,ATGGACACGTGATATG,0.14 kcal/mol
13,TTTTGCACGTGCTAAG,0.04 kcal/mol
14,ACGGGCACGTGGGGTA,-0.23 kcal/mol
15,ATGCTCACGTGAGTGA,0.44 kcal/mol
16,AGCGGCACGTGGGTCG,-0.25 kcal/mol
17,GATTACACGTGTGGAA,0.25 kcal/mol
18,AGTTCCACGTGGAGTT,0.08 kcal/mol
19,GCGTCCACGTGGTGGT,0.03 kcal/mol
20,TAGGGCACGTGTATGT,-0.03 kcal/mol
21,GATGCCACGTGATGGT,0.15 kcal/mol
22,TGGATCACGTGCTTAG,0.07 kcal/mol
23,GTAAGCACGTGCTGTA,-0.08 kcal/mol

row,Sequence,relative binding free energy
1,TATTTCACGTGTCGAG,0.19 kcal/mol
2,AAATACACGTGTGGTA,0.04 kcal/mol
3,AGTTTCACGTGGTGTC,0.21 kcal/mol
4,AGTGGCACGTGAACGT,0.02 kcal/mol
5,AAACTCACGTGTTGAT,0.38 kcal/mol
6,ACATGCACGTGGTGTG,-0.26 kcal/mol
7,TGTTGCACGTGTAACT,0.16 kcal/mol
8,AAATTCACGTGGTTTG,0.2 kcal/mol
9,GGAAGCACGTGGGTTC,-0.06 kcal/mol
10,AGGGGCACGTGCAGGT,-0.19 kcal/mol
11,AGACTCACGTGTGTTT,0.27 kcal/mol
12,AAGAGCACGTGTTTTA,0 kcal/mol
13,AACGGCACGTGATGGT,0.02 kcal/mol
14,CTTATCACGTGCTTGT,0.02 kcal/mol
15,GGCGACACGTGCTGGG,0.21 kcal/mol
16,ATGAGCACGTGTGTGC,-0.24 kcal/mol
17,TCTGGCACGTGAAGAG,0.22 kcal/mol
18,ATAGTCACGTGTTTGT,-0.03 kcal/mol
19,TGCCACACGTGTAGGG,0.13 kcal/mol
20,CGGTGCACGTGAGATG,0.29 kcal/mol
21,AGATACACGTGGGAGT,-0.03 kcal/mol
22,TACATCACGTGTGTGA,0.2 kcal/mol
23,TTATGCACGTGGCTGT,-0.16 kcal/mol
